From PubChem BioAssay AID1671194 (National Center for Advancing Translational Sciences (NCATS), 2021)
Out of some 140,000 compounds screened, about 240 (0.17%) were called active. Inconclusive means that the source gave no clear call. Such entries were picked first, then a sample of the others. The call rests on the fitted dose curve; in most records, active means well fitted inhibition curve with a large enough effect; inconclusive means small, poorly fitted or top-dose-only effect; inactive means no such curve, though single readings can be large or run the other way. Where the call is inconclusive, the potency comes from a doubtful curve fit.

Assay: Primary qHTS assay for inhibitors of alpha-synuclein gene (SNCA) expression; further: nearly all actives have a fitted effect of over 45% in size
Details: HEK-293 SNCA-luciferase knock-in, luminescence, 24 h; series mostly up to 57.2 µM
Potency means the concentration at half of the fitted maximal effect; tags describe the fitted curve by direction and shape.

Row | Compound | Potency
1 | CSc1ncc(C(=O)N2CCC(c3nccn3CCN(C)C)CC2)cn1 | inactive
2 | Cc1ccc(-c2cc(N3CCCN(C(=O)c4cccnc4)CC3)n[nH]2)cc1C | inconclusive: 3.16 µM [inhibitor, single point]
3 | Cc1cc(=O)n(CC(=O)NCCCc2ccccc2)c(N2CCc3ccccc3C2)n1 | inconclusive: 20 µM [inhibitor, single point]
4 | CCOC(=O)N1CCC(N(C)CC2CCN(CCc3ccc(F)cc3)CC2)CC1 | inconclusive: 3.16 µM [inhibitor, single point]
5 | O=C(c1ccccc1)c1cn(Cc2ccc(F)cc2)c2ccccc2c1=O | inconclusive: 17.8 µM [inhibitor, single point]
6 | COc1ccc(Nc2ccnc(N3CCC(NC(=O)Nc4ccc(Cl)cc4)CC3)n2)cc1 | inconclusive: 39.8 µM [inhibitor, single point]
7 | O=C(NCCC1=CCCCC1)c1noc(-c2ccc[nH]c2=O)n1 | inconclusive: 7.08 µM [inhibitor, partial curve]
8 | CCCCCCCCCCCCCC(=O)N[C@H](CO)[C@H](O)c1ccc([N+](=O)[O-])cc1 | active: 9.61 µM
9 | CC(=O)N1C[C@@H]2CCCN3CCC[C@@H]([C@H]23)[C@H]1CCCC(=O)N1CCC(C)CC1 | inconclusive: 39.8 µM [inhibitor, single point]
10 | Cc1ccc(NC(=O)Cn2cc(S(=O)(=O)Cc3cccc(Cl)c3)c3ccccc32)cc1C | inconclusive: 2.51 µM [inhibitor, single point]
11 | COc1ccc(-c2nc(C3CC3)nc3c2CCN(Cc2cccc4ccccc24)CC3)cc1 | inconclusive: 1.26 µM [inhibitor, full curve, poor fit]
12 | COc1ccc(C2=C(C)C(=NCCCN3CCN(c4cc(Cl)ccc4C)CC3)NS2(=O)=O)cc1 | inconclusive: 39.8 µM [inhibitor, single point]
13 | COc1ccc(N2CC(C(=O)NCCc3ccc(Cl)cc3)NC2=O)cc1 (stereo not given) | inactive
14 | Cc1ccc(C#N)c(N2CCN(C3CCCC3)C(CCO)C2)n1 (stereo not given) | inconclusive: 3.16 µM [inhibitor, single point]
15 | COc1ccc(Oc2ncc3ncc(=O)n(C[C@H]4CCCO4)c3n2)cc1 | inconclusive: 11.2 µM [inhibitor, partial curve]
16 | COc1cc(OC)cc(C(=O)NC2CCCN(c3cc(-c4ccc(F)cc4)[nH]n3)C2)c1 (stereo not given) | inactive
17 | Cc1ccc(OCC(=O)N2CC(c3noc(COc4ccccc4)n3)C2)cc1 | inconclusive: 8.91 µM [inhibitor, single point]
18 | CC(C)(C)c1cc(/C=C(\C#N)C(N)=S)cc(C(C)(C)C)c1O | inconclusive: 28.2 µM [inhibitor, partial curve, poor fit]
19 | Cn1cc(CN2CCNc3cc(-c4ccccc4)ncc3C2)cn1 | inactive
20 | CCc1cc(=O)n(CC(=O)Nc2cc(OC)ccc2OC)c(-c2ccccc2)n1 | inconclusive: 11.2 µM [inhibitor, partial curve, poor fit]
21 | CNc1nccc(N2CCC(CC(=O)N(C)CCCc3c(C)nn(C)c3C)CC2)n1 | inconclusive: 39.8 µM [inhibitor, single point]
22 | CC(C)=CCC1(CO)CCCN(Cc2ccccc2OCCO)C1 (stereo not given) | inactive

Row | Compound | Potency
23 | Cc1cc(Cl)ccc1NS(=O)(=O)c1c(C(=O)N2CCCCCC2)c(C)n(C)c1C | inconclusive: 7.08 µM [inhibitor, single point]
24 | COc1ccccc1-c1[nH]nc2ncc(-c3ccc(C)cc3)nc12 | inconclusive: 20 µM [inhibitor, single point]
25 | CC(C)Oc1ccc(C(=O)Nc2nnc3n2CCS3)cc1 | inconclusive: 3.16 µM [inhibitor, partial curve, poor fit]
26 | CCCn1nc(C)cc1CN(CC)C(=O)c1cc[nH]c1C1CCCNC1 (stereo not given) | inconclusive: 5.01 µM [inhibitor, single point]
27 | O=C(Nc1ccc(Cl)cc1)N1Cc2[nH]cnc2C[C@H]1c1nc(-c2ccc(F)c(Cl)c2)no1 | inactive
28 | COc1cccc(C(=O)NCc2nnc3ccc(-c4ccc(C)cc4)nn23)c1OC | inactive
29 | CCOc1ccccc1C(=O)N1CCC(Cc2nc(-c3ccc(F)cc3)no2)CC1 | inconclusive: 28.2 µM [inhibitor, partial curve, poor fit]
30 | O=S(=O)(c1cccc(Cl)c1)n1c(/C=C/c2ccccc2Cl)nc2ccccc21 | inconclusive: 8.91 µM [inhibitor, partial curve, poor fit]
31 | CS(=O)(=O)N1C[C@H]2CCN(C(=O)c3ccncc3F)C[C@H]21 | inconclusive: 20 µM [inhibitor, single point]
32 | CN(Cc1ccccc1)c1ccc(C(=O)N2CCC(CN3CCCC3=O)CC2)cn1 | inconclusive: 11.2 µM [inhibitor, partial curve, poor fit]
33 | COCc1nc(CCNC(=O)C2CC2)no1 | inconclusive: 39.8 µM [inhibitor, single point]
34 | C=CC(=O)N1CCc2ccc(-n3c(=O)ccc4cnc5ccc(-c6cnn(C)c6)cc5c43)cc21 | inconclusive: 17.1 µM [inhibitor, partial curve, poor fit]
35 | CN(C)c1ccc(-c2nnc([C@H]3CCN(CC4CCCCC4)C3)o2)cc1 | inactive
36 | COc1ccc(C(=O)N2CCOCC3(CN(Cc4cc(F)cc(F)c4)C3)C2)cc1 | inconclusive: 1.12 µM [inhibitor, full curve, poor fit]
37 | CCC(c1cn2cccnc2n1)n1ccnc1-c1cc2n(n1)CCCNC2 (stereo not given) | inconclusive: 15.8 µM [inhibitor, single point]
38 | COc1ccccc1C(=O)N1CCC2(CC1)OC(=O)N(Cc1ccccc1C#N)C2(C)c1ccccc1 (stereo not given) | inconclusive: 3.16 µM [inhibitor, full curve, poor fit]
39 | O=C1CC(c2ccccc2)N(C(=O)CNC(=O)c2[nH]nc3c2CCc2ccccc2-3)CCCCCN1 (stereo not given) | inactive
40 | CNc1nccc(N2CCC(CC(=O)N3CCN(c4cccc(OC)c4)CC3)CC2)n1 | inactive
41 | O[C@@H](COc1cccc2ncccc12)CN1CCN(C2c3ccccc3[C@@H]3[C@H](c4ccccc42)C3(F)F)CC1 (stereo not given in full) | inconclusive: 12.1 µM [inhibitor, full curve, poor fit]
42 | COc1ccccc1-c1cccc(CN2CCC(NC(=O)c3cccc(Cl)c3)CC2)c1 | inactive
43 | Cc1noc(-c2cccc(OC3CN(C(=O)NCc4ccccc4)C3)c2)n1 | inactive
44 | FC(F)(F)c1cccc(Nc2nc3nonc3nc2Nc2ccc(Cl)cc2)c1 | active: 11.2 µM

Row | Compound | Potency
45 | CN(C)C[C@@H]1CN(S(C)(=O)=O)C[C@H]1NC(=O)c1ccc2nc[nH]c2c1 | inconclusive: 20 µM [inhibitor, partial curve, poor fit]
46 | COc1ccc(C)cc1NC(=O)CN(C)S(=O)(=O)c1ccc2c(c1)c(=O)n(C)c(=O)n2C | inconclusive: 15.8 µM [inhibitor, single point]
47 | O=C(NCC(F)F)C1CCCN(Cc2cccc(-c3cccs3)c2)C1 (stereo not given) | inactive
48 | CCN1CCN(CCNC(=O)c2cc(-c3ccc(Cl)cc3)cn2C)CC1 | inactive
49 | O=C(C1CCCC1)N1CCC(Cc2nncn2CC2CC2)C1 (stereo not given) | inconclusive: 39.8 µM [inhibitor, single point]
50 | COc1ccc(OCCCn2c(C3CC(=O)N(c4ccc(F)cc4)C3)nc3ccccc32)cc1 (stereo not given) | inconclusive: 39.8 µM [inhibitor, single point]
51 | COc1ccc(-c2coc3cc(O)cc(O)c3c2=O)cc1 | inconclusive: 48.2 µM [inhibitor, single point]
52 | NC(=O)[C@@H]1CN(C(=O)c2ccccc2F)C[C@H]1COc1ccccc1 | inconclusive: 39.8 µM [inhibitor, single point]
53 | O=C(NCCCN1CCN(c2ccc(F)cc2)CC1)Nc1ccccc1Cl | inconclusive: 3.16 µM [inhibitor, single point]
54 | CCc1nc(C)sc1C(=O)N1CCN(C)C2(CCNC(=O)CC2)C1 (stereo not given) | inconclusive: 5.62 µM [inhibitor, single point]
55 | Cn1ccc(Nc2nccc3c(=O)cc(-c4cccnc4)oc23)n1 | inactive
56 | O=C(NCc1ccsc1)c1nc(-c2ccc(Cl)cc2)c2cnccn12 | inactive
57 | CN1CCN(c2ncc3nc(-c4cccc(C#N)c4)c(=O)n(CCc4ccccc4)c3n2)CC1 | inconclusive: 39.8 µM [inhibitor, single point]
58 | CC(=O)N1CCC2(CC1)CN(C(=O)c1ccnc(N)c1)Cc1ccccc1O2 | inconclusive: 8.91 µM [inhibitor, single point]
59 | O=C(NCc1n[nH]c2c1CCC2)c1coc(COc2cccc(F)c2F)n1 | inconclusive: 39.8 µM [inhibitor, single point]
60 | COCCCNC(=O)C1(C)CN(C)Cc2ccc(NCc3ccccc3)nc21 (stereo not given) | inactive
61 | O=C(Nc1ccc(Oc2ccccc2)cc1)c1cc2n(n1)CC(c1ccc(Cl)cc1)OC2 (stereo not given) | inconclusive: 2.24 µM [inhibitor, full curve]
62 | O=C(Nc1cccnc1)c1nc2c(o1)CCN(Cc1ccc3[nH]ccc3c1)CC2 | inactive
63 | COc1ccc(C(=O)NC(c2ccccc2Cl)c2cc(Cl)c3cccnc3c2O)cc1 (stereo not given) | inconclusive: 2.24 µM [inhibitor, full curve, poor fit]
64 | CN(Cc1ccc(-c2ccccc2)cc1)C(=O)Cc1ccc(F)cc1 | inconclusive: 56.2 µM [inhibitor, single point]
65 | COc1ccccc1CNC(=O)CCS(=O)(=O)c1ccc2c(c1)oc(=O)n2C | inconclusive: 1.12 µM [inhibitor, full curve]
